Laboratory results from the supplement of paper PMC3334620.
The full ranking holds about 33,000 sequences; the median of “E-score (-0.5 to 0.5)” is about -0.032, and the highest 2% start at about 0.36. The list shows a part of the results.

molecular target: T1, Sko1 (UniProt Q02100); assay: PBM E-score (8-mer binding enrichment) (E-score (-0.5 to 0.5)); higher = stronger / more preferred TF binding; most listed sequences are background and not binding sites; conditions: protein concentration: 200 nM; construct: GST-full length
T1 sequence: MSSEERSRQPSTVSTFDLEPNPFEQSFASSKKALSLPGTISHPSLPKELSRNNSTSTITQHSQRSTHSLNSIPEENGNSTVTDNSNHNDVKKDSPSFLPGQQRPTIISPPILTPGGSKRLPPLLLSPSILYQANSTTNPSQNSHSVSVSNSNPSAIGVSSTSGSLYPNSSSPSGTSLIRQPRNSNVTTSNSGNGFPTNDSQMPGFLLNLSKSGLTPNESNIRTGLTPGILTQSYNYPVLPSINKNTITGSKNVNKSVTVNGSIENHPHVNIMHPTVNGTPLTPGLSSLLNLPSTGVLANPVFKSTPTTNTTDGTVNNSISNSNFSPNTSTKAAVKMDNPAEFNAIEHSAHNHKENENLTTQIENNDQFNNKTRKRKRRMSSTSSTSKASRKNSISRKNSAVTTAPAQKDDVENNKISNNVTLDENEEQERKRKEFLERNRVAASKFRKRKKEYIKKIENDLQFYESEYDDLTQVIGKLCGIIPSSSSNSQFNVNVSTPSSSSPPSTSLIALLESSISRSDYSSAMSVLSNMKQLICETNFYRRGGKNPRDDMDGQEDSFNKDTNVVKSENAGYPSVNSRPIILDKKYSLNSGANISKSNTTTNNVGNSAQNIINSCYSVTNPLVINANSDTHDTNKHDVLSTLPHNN
Summary of the method: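 E-scores (a modified Wilcoxon-Mann-Whitney statistic) were assigned by the Universal PBM Analysis Suite to every ungapped eight-base word pooled with its reverse complement. The input came from universal all-10-mer Agilent arrays made double-stranded by primer extension and probed with GST-tagged yeast transcription factors at about 100-200 nM. Fluorescent anti-GST detected bound protein, and masliner normalised the scans.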

First: CCAGAGGA
Second: CCGAACGC
The “PBM E-score” value of the first is lower: -0.21 for the first, -0.0725 for the second.

Going from ACACGAGG to GATGGTCA, the “PBM E-score” value rises from -0.138 to -0.0743.

Going from TGCAAGAA to CCTCCGAG, the “PBM E-score” value falls from 0.105 to -0.337.

Going from GAATGGAA to GGATCGGA, the “PBM E-score” value falls from 0.12 to -0.23.

Compared with CGTGTAGA, CACGTCAC is higher in “PBM E-score” value: 0.162 for the first, 0.482 for the second.

Going from GGGATCCA to CGTACGGC, the “PBM E-score” value rises from -0.0947 to 0.251.

First: ATATAACG
Second: CAATATAA
The “PBM E-score” value of the first is higher: 0.342 for the first, 0.215 for the second.

Going from TGCGAGCA to CCCGAGAA, the “PBM E-score” value falls from -0.0905 to -0.206.

Going from ATACCCAG to ATTGAACA, the “PBM E-score” value rises from -0.249 to 0.14.

First: AGGTGACG
Second: AAGAGTCG
The “PBM E-score” value of the first is higher: 0.388 for the first, 0.0344 for the second.

Going from ACGGCTAG to GGTGACTA, the “PBM E-score” value rises from -0.115 to 0.0101.

Going from CCTGATGC to AACCCATT, the “PBM E-score” value rises from -0.0632 to -0.0377.

Compared with ACTGTATG, CGGCCAGA is lower in “PBM E-score” value: 0.0782 for the first, -0.00809 for the second.

Compared with GGGTCCCA, CCGGCACG is higher in “PBM E-score” value: -0.197 for the first, -0.0598 for the second.

First: CGGCTAAG
Second: CTCGAGGC
The “PBM E-score” value of the first is higher: -0.14 for the first, -0.217 for the second.

First: AAAGCTAG
Second: CCCCGCAG
The “PBM E-score” value of the first is higher: -0.105 for the first, -0.302 for the second.

Compared with ACGAAAAA, CCTCTATA is lower in “PBM E-score” value: 0.26 for the first, -0.164 for the second.

Going from CGCGCGTC to CGCAGCGA, the “PBM E-score” value falls from 0.189 to 0.0221.

Compared with ATATGAGG, ATTGTCGC is higher in “PBM E-score” value: -0.0112 for the first, 0.114 for the second.

Compared with GAAACGGA, CGAAGCCC is lower in “PBM E-score” value: 0.15 for the first, -0.167 for the second.

Going from GGCCACAA to AAGCAGTG, the “PBM E-score” value rises from -0.172 to 0.035.

Going from CGCAGGCC to GTGCACGA, the “PBM E-score” value rises from -0.175 to 0.0663.

Compared with CCTTCTCG, GGAGTGAC is higher in “PBM E-score” value: -0.203 for the first, 0.0852 for the second.

Compared with CAGAGAGG, ATGATATG is higher in “PBM E-score” value: -0.453 for the first, 0.264 for the second.

Compared with ACTTTGAA, GTCGAACA is lower in “PBM E-score” value: 0.0988 for the first, -0.00814 for the second.

Going from CAGTAGTC to CACCGCTC, the “PBM E-score” value falls from -0.0789 to -0.197.

Going from ATAAGGGC to ATCACCAC, the “PBM E-score” value rises from 0.0973 to 0.117.

Going from ACTTAGCG to AGGCAAAC, the “PBM E-score” value falls from 0.0634 to -0.029.

Going from CTGATATC to AATCTAAA, the “PBM E-score” value rises from -0.054 to 0.0802.

Compared with AGATGAGA, ACCCTGAT is lower in “PBM E-score” value: -0.051 for the first, -0.0969 for the second.

Going from ACAGAACT to AACGATGG, the “PBM E-score” value falls from 0.105 to -0.0107.

Going from AAGTCTAG to ACCATGAC, the “PBM E-score” value rises from -0.123 to 0.33.

Compared with ATTTGACC, ACACAGTA is lower in “PBM E-score” value: 0.0811 for the first, -0.0011 for the second.

Compared with AAGACAAC, GCAAGGAC is lower in “PBM E-score” value: 0.122 for the first, -0.202 for the second.

First: GCACCTGA
Second: GCGGAAAA
The “PBM E-score” value of the first is lower: -0.0568 for the first, -0.0507 for the second.

Compared with GACTGTTA, TCTGCACA is lower in “PBM E-score” value: 0.0705 for the first, 0.0341 for the second.

Compared with AAGCAGGC, CTGTTCCA is higher in “PBM E-score” value: -0.13 for the first, -0.036 for the second.

First: ACCCGGCT
Second: GACGGCCC
The “PBM E-score” value of the first is lower: -0.295 for the first, -0.294 for the second.

Going from TCGGCACA to ATCATCCG, the “PBM E-score” value falls from -0.0756 to -0.0992.

Compared with CCGAGTTA, ATGGGTGC is lower in “PBM E-score” value: -0.0694 for the first, -0.0925 for the second.

Compared with CTTCGTGA, AGGAGTCC is lower in “PBM E-score” value: 0.186 for the first, -0.36 for the second.

First: AGGATCTC
Second: AAACACTC
The “PBM E-score” value of the first is lower: -0.269 for the first, 0.0324 for the second.

Compared with AGCACACA, CTGCACAA is higher in “PBM E-score” value: -0.143 for the first, 0.0052 for the second.

Compared with CAACCGAC, ACGCTCTG is lower in “PBM E-score” value: 0.159 for the first, -0.0625 for the second.

Going from CCACCATA to ATTTGATG, the “PBM E-score” value rises from -0.1 to 0.112.

First: GTCTCCCA
Second: ACGTTAAC
The “PBM E-score” value of the first is lower: -0.261 for the first, 0.332 for the second.

Going from CGAAGATA to ACATTCAC, the “PBM E-score” value falls from 0.16 to -0.0321.

Compared with CATCCTTA, AGAAGGGG is lower in “PBM E-score” value: 0.0469 for the first, -0.316 for the second.

Going from CCTGCGCG to CCGCCTCA, the “PBM E-score” value falls from -0.127 to -0.292.

First: CTCTTGGA
Second: ATTGACTA
The “PBM E-score” value of the first is lower: -0.1 for the first, -0.0436 for the second.

Going from CCAGGGAG to GGCCGTCA, the “PBM E-score” value rises from -0.205 to -0.184.

Going from GAAATCTC to AAAGTCCG, the “PBM E-score” value falls from 0.0418 to -0.155.

Compared with AGACTGAA, ACCTCCAT is lower in “PBM E-score” value: -0.0673 for the first, -0.332 for the second.

Compared with CCCGTTCG, AACTTGGT is higher in “PBM E-score” value: -0.12 for the first, 0.0279 for the second.

First: ATTCAGAG
Second: CACGAGAC
The “PBM E-score” value of the first is lower: 0.0009 for the first, 0.105 for the second.

Going from CCGAACTA to GTCGGTCA, the “PBM E-score” value falls from -0.0814 to -0.129.

Compared with AAACGGTT, CGGGTCAC is lower in “PBM E-score” value: -0.193 for the first, -0.217 for the second.

Going from ACGCCTAG to AGAATCGA, the “PBM E-score” value rises from -0.085 to -0.0448.

Going from CGTATCAG to CTTTTAAC, the “PBM E-score” value falls from 0.262 to 0.0204.

Going from GTGCGTCA to CAACTAGC, the “PBM E-score” value falls from 0.456 to 0.0232.

Going from GTGCCGTA to GGTACGCA, the “PBM E-score” value rises from 0.0237 to 0.268.

First: CGGACAGA
Second: CCCGGACA
The “PBM E-score” value of the first is higher: -0.0901 for the first, -0.179 for the second.

First: ACACGCGA
Second: CTTATGTA
The “PBM E-score” value of the first is lower: 0.251 for the first, 0.274 for the second.

Going from ATCCAGCC to TAACGTAA, the “PBM E-score” value rises from -0.356 to 0.457.

Compared with TAGATTCA, CCCTGCCG is lower in “PBM E-score” value: 0.00378 for the first, -0.375 for the second.

Going from GAGGAGGA to AATTATTG, the “PBM E-score” value rises from -0.17 to 0.189.

First: ACCGGTAA
Second: GTGTCGTA
The “PBM E-score” value of the first is lower: 0.00473 for the first, 0.312 for the second.

Going from ACCGTTAG to AGCCAATG, the “PBM E-score” value rises from -0.0707 to -0.049.

Going from AATATGAC to CCTATTAA, the “PBM E-score” value falls from 0.367 to -0.0774.

Compared with CAGATAAC, CTCTCAGA is lower in “PBM E-score” value: 0.00415 for the first, -0.0843 for the second.

Compared with ACTCGTGG, CCCGCATA is lower in “PBM E-score” value: -0.0737 for the first, -0.0936 for the second.

Going from GCCGTACA to AGAGAGGA, the “PBM E-score” value falls from -0.148 to -0.292.

Going from ATTTCTGC to CTTAAGCA, the “PBM E-score” value falls from 0.195 to -0.0027.

Compared with CCACGGGG, CCGCCAAC is higher in “PBM E-score” value: -0.321 for the first, -0.263 for the second.

First: GTGAGAAA
Second: AAAGAGTT
The “PBM E-score” value of the first is higher: 0.0805 for the first, -0.0156 for the second.

First: GTTAGAAA
Second: AAACAACC
The “PBM E-score” value of the first is lower: -0.0687 for the first, -0.0394 for the second.

First: AACTTCAC
Second: CCCTTTCG
The “PBM E-score” value of the first is higher: 0.116 for the first, -0.228 for the second.

Compared with AGGCTAGC, AGTTCTAG is higher in “PBM E-score” value: -0.274 for the first, -0.172 for the second.

First: ATGTAACG
Second: CAGCCAAG
The “PBM E-score” value of the first is higher: 0.251 for the first, -0.131 for the second.

First: AACTGGGG
Second: ATACTACC
The “PBM E-score” value of the first is lower: -0.242 for the first, -0.0741 for the second.

First: AAAGACAC
Second: CGTCAGCC
The “PBM E-score” value of the first is lower: 0.143 for the first, 0.302 for the second.

Compared with CGAACAAC, ATAATACA is higher in “PBM E-score” value: 0.161 for the first, 0.208 for the second.

Going from GATGGGCC to ATAGTCCG, the “PBM E-score” value rises from -0.32 to -0.0283.

First: GATGAACC
Second: TAAGAGAA
The “PBM E-score” value of the first is lower: -0.133 for the first, 0.137 for the second.

Compared with TGAACACA, GATGGCTA is lower in “PBM E-score” value: 0.00833 for the first, -0.026 for the second.

First: AGTCATAG
Second: ATAGGTAC
The “PBM E-score” value of the first is lower: -0.0111 for the first, 0.00968 for the second.
